Data reported in patent publication EP0603419A1, “NOVEL THIAZOLIDINEDIONE COMPOUND AND USE THEREOF” (Japan Tobacco Inc., priority 1992, dated 1994).
The name of at least one read-out is uncertain.

How the values were obtained:
db/db mouse = assay: Hypoglycemic and hypolipemic action in diabetic db/db mice (serum glucose and serum triglyceride, change vs vehicle control at day 5); format: in vivo; conditions: day 1-4, change in percent vs vehicle control at day 5
KK-A^y mouse = assay: Hypoglycemic and hypolipemic action in diabetic KK-A^y mice (serum glucose and serum triglyceride, change vs vehicle control at day 5); format: in vivo; conditions: day 1-4, change in percent vs vehicle control at day 5
[1] = dose 100 mg/kg orally twice a day
[2] = dose 10 mg/kg orally twice a day
[3] = dose 30 mg/kg orally twice a day
[4] = dose 1 mg/kg orally twice a day
[5] = dose 3 mg/kg orally twice a day

SMILES	serum glucose (%) (db/db mouse; [2])	serum triglyceride (%) (db/db mouse; [2])	serum glucose (%) (KK-A^y mouse; [2])	serum triglyceride (%) (KK-A^y mouse; [2])	further results
Cc1c(C)c2c(c(C)c1O)CCC(C)(COc1ccc(CC3SC(=O)NC3=O)cc1)O2 (racemic) [CS-045, (±)-5-[4-(6-hydroxy-2,5,7,8-tetramethylchroman-2-yl-methoxy)benzyl]-2,4-thiazolidinedione, reference compound]	–	–	–	–	serum glucose (%) (db/db mouse; [1]): -21.5%; serum triglyceride (%) (db/db mouse; [1]): -55.5%; serum glucose (%) (KK-A^y mouse; [1]): -29.4%; serum triglyceride (%) (KK-A^y mouse; [1]): -22.9%
Cc1oc(C(C)Sc2cc(C(C)(C)C)c(O)c(C(C)(C)C)c2)nc1CCOc1ccc(CC2SC(=O)NC2=O)cc1 (stereo not shown) [Ex. 1]	-22.4%	-44.7%	-50.3%	-46.2%	serum glucose (%) (db/db mouse; [3]): -44.6%; serum triglyceride (%) (db/db mouse; [3]): -63.1%; serum glucose (%) (KK-A^y mouse; [3]): -53.2%; serum triglyceride (%) (KK-A^y mouse; [3]): -43.3%
Cc1oc(CSc2cc(C(C)(C)C)c(O)c(C(C)(C)C)c2)nc1CCOc1ccc(CC2SC(=O)NC2=O)cc1 (stereo not shown) [Ex. 2, 5-[4-[2-[2-[1-(3,5-di-tert-butyl-4-hydroxyphenylthio)methyl]-5-methyl-4-oxazolyl]ethoxy]benzyl]-2,4-thiazolidinedione]	-20.3%	-48.8%	-50.4%	-55.4%	serum glucose (%) (db/db mouse; [3]): -52.2%; serum triglyceride (%) (db/db mouse; [3]): -51.0%; serum glucose (%) (KK-A^y mouse; [3]): -40.9%; serum triglyceride (%) (KK-A^y mouse; [3]): -62.2%
CCC(Sc1cc(C(C)(C)C)c(O)c(C(C)(C)C)c1)c1nc(CCOc2ccc(CC3SC(=O)NC3=O)cc2)c(C)o1 (stereo not shown) [Ex. 3, 5-[4-[2-[2-[1-(3,5-di-tert-butyl-4-hydroxyphenylthio)propyl]-5-methyl-4-oxazolyl]ethoxy]benzyl]-2,4-thiazolidinedione]	–	-12.5%	-25.7%	-23.9%	–
Cc1oc(C(C)(C)Sc2cc(C(C)(C)C)c(O)c(C(C)(C)C)c2)nc1CCOc1ccc(CC2SC(=O)NC2=O)cc1 (stereo not shown) [Ex. 4, 5-[4-[2-[2-[1-(3,5-di-tert-butyl-4-hydroxyphenylthio)isopropyl]-5-methyl-4-oxazolyl]ethoxy]benzyl]-2,4-thiazolidinedione]	–	-27.5%	-45.9%	-46.6%	–
Cc1oc(C(Sc2cc(C(C)(C)C)c(O)c(C(C)(C)C)c2)c2ccccc2)nc1CCOc1ccc(CC2SC(=O)NC2=O)cc1 (stereo not shown) [Ex. 5, 5-[4-[2-[2-[1-(3,5-di-tert-butyl-4-hydroxyphenylthio)-1-phenylmethyl]-5-methyl-4-oxazolyl]ethoxy]benzyl]-2,4-thiazolidinedione]	–	-19.5%	-23.5%	-23.5%	–
COc1ccc(SCc2nc(CCOc3ccc(CC4SC(=O)NC4=O)cc3)c(C)o2)cc1 (stereo not shown) [Ex. 6, 5-[4-[2-[5-methyl-2-(4-methoxyphenylthio)methyl-4-oxazolyl]ethoxy]benzyl]-2,4-thiazolidinedione]	–	-25.9%	-46.0%	-28.4%	–
Cc1oc(CSc2ccc(O)cc2)nc1CCOc1ccc(CC2SC(=O)NC2=O)cc1 (stereo not shown) [Ex. 7, 5-[4-[2-[2-(4-hydroxyphenylthio)methyl-5-methyl-4-oxazolyl]ethoxy]benzyl]-2,4-thiazolidinedione]	-21.7%	-32.9%	-44.9%	-52.8%	–
Cc1oc(COc2ccc(OCc3ccccc3)cc2)nc1CCOc1ccc(CC2SC(=O)NC2=O)cc1 (stereo not shown) [Ex. 8]	–	–	–	–	serum glucose (%) (db/db mouse; [3]): -31.8%; serum triglyceride (%) (db/db mouse; [3]): -56.1%; serum glucose (%) (KK-A^y mouse; [3]): -50.3%; serum triglyceride (%) (KK-A^y mouse; [3]): -62.4%
Cc1oc(COc2ccc(O)cc2)nc1CCOc1ccc(CC2SC(=O)NC2=O)cc1 (stereo not shown) [Ex. 9]	-44.5%	-63.3%	-55.6%	-70.7%	–
COc1cc(OC)cc(OCc2nc(CCOc3ccc(CC4SC(=O)NC4=O)cc3)c(C)o2)c1 (stereo not shown) [Ex. 10]	–	-34.8%	-57.8%	-54.6%	–
Cc1oc(C(C)Oc2ccccn2)nc1CCOc1ccc(CC2SC(=O)NC2=O)cc1 (stereo not shown) [Ex. 11]	-27.2%	-44.0%	-49.0%	-67.4%	–
Cc1oc(CSc2ncccn2)nc1CCOc1ccc(CC2SC(=O)NC2=O)cc1 (stereo not shown) [Ex. 13]	-34.3%	-64.5%	-54.8%	-63.8%	serum glucose (%) (KK-A^y mouse; [4]): -55.3%; serum triglyceride (%) (KK-A^y mouse; [4]): -64.9%; serum glucose (%) (KK-A^y mouse; [5]): -48.7%; serum triglyceride (%) (KK-A^y mouse; [5]): -54.9%
Cc1oc(CSc2ccccn2)nc1CCOc1ccc(CC2SC(=O)NC2=O)cc1 (stereo not shown) [Ex. 14]	-38.6%	-63.4%	-63.2%	-75.2%	–
Cc1oc(CSc2ccc([N+](=O)[O-])cc2)nc1CCOc1ccc(CC2SC(=O)NC2=O)cc1 (stereo not shown) [Ex. 15]	–	-16.9%	-21.6%	-32.9%	–
Cc1oc(CSc2ccc(Cl)cc2)nc1CCOc1ccc(CC2SC(=O)NC2=O)cc1 (stereo not shown) [Ex. 16]	–	-17.1%	-24.2%	–	–
Cc1oc(COc2cc(C(C)(C)C)cc(C(C)(C)C)c2)nc1CCOc1ccc(CC2SC(=O)NC2=O)cc1 (stereo not shown) [Ex. 17]	–	–	-24.7%	–	serum glucose (%) (db/db mouse; [3]): -28.1%; serum triglyceride (%) (db/db mouse; [3]): -41.2%; serum glucose (%) (KK-A^y mouse; [3]): -30.0%; serum triglyceride (%) (KK-A^y mouse; [3]): -19.2%
Cc1oc(CSc2nccn2C)nc1CCOc1ccc(CC2SC(=O)NC2=O)cc1 (stereo not shown) [Ex. 18]	–	-10.4%	-54.9%	-57.1%	–
Cc1oc(CSC2CCCCC2)nc1CCOc1ccc(CC2SC(=O)NC2=O)cc1 (stereo not shown) [Ex. 19]	-14.7%	-37.6%	-44.2%	-53.4%	–
Cc1oc(CNc2ccccc2)nc1CCOc1ccc(CC2SC(=O)NC2=O)cc1 (stereo not shown) [Ex. 20]	-21.0%	-36.3%	-60.2%	-72.2%	–
Cc1oc(CSc2ccccc2)nc1CCOc1ccc(CC2SC(=O)NC2=O)cc1 (stereo not shown) [Ex. 22]	–	-45.3%	-46.6%	-32.4%	–
Cc1oc(COc2ccccc2)nc1CCOc1ccc(CC2SC(=O)NC2=O)cc1 (stereo not shown) [Ex. 24]	-51.5%	-57.4%	-51.2%	-60.8%	–
